The source gives no read counts; variants with many changes may rest on few reads.
B1: LINE1-mini (parent)
chain: GGCAGAGCUCAACACAGCGUGGCAAAGUGGCUGUGGCUAGACUGCC

Variants of: B1
Assay: self-cleavage, relative activity (ratio to wild type); higher = more cleavage; in vitro, sequencing; the parent is a self-cleaving ribozyme

Variant	self-cleavage
A12C G35U G36A	0
A12G C18A A25U A41C	0.01
A12C G29U C37A	0.01
A12U C15A G19U A24C G36A	0.18
A12C G33U G35U U43A	0
A12G C13G C46A	0.01
A12G C15U U28A G36A C45U	0.02
A12G G21U U28C G40C	0.01
A12U G19U G30U	0.2
A12C U28A U32G	0.02
A12U C15G G33A G35A	0.01
A12C U20G C31U	0.01
A12G U20G A26G	0.28
A12U G19C G30U	0.26
A12G C23A G29U U38A	0
A12G G27A C37U	0.04
A12U G21A G27U	0.39
A12G C13U U38G G40U C45U	0.02
A12C U28C C37A	0.03
A12U C13G U20G A24U G27A C45A	0.02
A12G G21A G22A U32C G40U	0.01
A12U G19A U38C	0.25
A12U G19C G29U C31G G40A	0
A12G A16G U34C	0.01

Variant	self-cleavage
A12G G27U C42U	0.13
A12G G36A G44U	0.01
A12U G17A G27U G40A	0.01
A12U C18U G30U	0.08
A12C U28A U38A A39C	0.01
A12G C23G G40U	0
A12U A14C C15A G22C	0.02
A12C U28A A41U	0.01
A12C G30U C37U	0.01
A12U A14U G36C C37A C42G	0.11
A12G G29U C37A	0.03
A12G A16G C23A G33U	0.03
A12U C13G G17A G33C G40A C42A	0.01
A12C U34G C42G	0
A12U G19A G33U	0.06
A12U A14U U34A U43A	0.02
A12U A14G G27A U28C	0.11
A12G A14G U34G	0.08
A12U C31A G35C	0.02
A12G G17U A25G	0.13
A12G A16C G36U	0.01
A12G G36A C42A	0.03
A12U C15G C46U	0.02
A12G U34G C46A	0.01

Variant	self-cleavage
A12G A24C G29A G33A	0.01
A12G G21U G40U	0.05
A12U C13G G30A G44U	0.13
A12U C15A U32C C37A U38G A39G	0
A12U G19C C23A C45A	0.04
A12U C18A G21A A25U G44C	0.03
A12U C15A A16U U20C G29C C46A	0.01
A12G U32A U43A	0.03
A12G C13G G29C C37A	0.05
A12U C13A A26C	0.05
A12U A16C U34C	0.03
A12G G22C G27U	0.04
A12U A26G G40C	0.01
A12G C15U G29C	0.04
A12G C18A C37U	0.07
A12G C13G G27U	0.12
A12C U20G G33A C45U	0.01
A12G G19C G22A	0.01
A12G U28A U34C G35U A39C C42U	0
A12G C13A C15U G17U G27C	0.02
A12G A24U G36U	0.03
A12U C18G U20G G35C	0.02
A12G A14U A26C	0.02
A12G C23U C42G	0.01

Variant	self-cleavage
A12G C15A G21U U32A	0.03
A12G A16C C18A G22U U38C C45G	0
A12G C31U G35U	0.02
A12U C18G C37A	0.04
A12G G22C U28G G33C	0.19
A12G C37G C42U C46G	0.01
A12G C15G A16U G17A G36U	0.16
A12C G29U C37A C45A	0.02
A12G U28G C37U	0.02
A12U A25U U34C G36U U38A A41C	0
A12G C18U U20G A26G C37U	0.05
A12G A14U C15U	0.04
A12G G36U G40U	0.11
A12U C23U C31G G33A	0.11
A12G G29A G30U C37U C42A	0.08
A12U A24U U28A G35U G36U	0.18
A12G C18G G19U C23U A26U	0.02
A12G C15A C18G A24C G36C	0.11
A12U C23G C45U	0.38
A12U C13U G22U A24G C31U G40A U43A	0.03
A12U C37A C46G	0.02
A12G A24C G33U U34C C46A	0.01
A12G U38A G44C	0
A12U C31G G33A U34G C45U	0.01

Variant	self-cleavage
A12G G17U C18A G22U G36U	0.04
A12G G21A G29U	0.01
A12G G19A G21A G36U	0.01
A12G G17U G30U C37U	0.31
A12G G29C U38G C45G	0
A12G G19U C23U G35C	0.02
A12G C13U G17A G35A C37U	0.01
A12U C15G G29A	0.02
A12U C13A A26C G27C U38G	0
A12G U38A A41G	0.03
A12C U20A A25C G29U	0.02
A12G A14U C23G A26U G27C	0.04
A12G A16U G27A G33A	0.08
A12G G40A C46G	0.06
A12G A14C A41C G44A	0.04
A12C G29U G40A	0.03
A12G C18A C45U	0.06
A12G A16U C23A G33U C45U	0.04
A12U A41U C46G	0.11
A12U C15A C18U	0.06
A12U C13A U20C	0.05
A12G A14U U32A	0.1
A12U A24C U34C	0.02
A12U A24C U34G	0.05

Variant	self-cleavage
A12G G17U C46U	0.01
A12U A16G U20C A41C C45A	0.07
A12G G21U C23A G35U C45G	0.01
A12U A26G G33U	0.16
A12G A24G G30U A39C C46U	0.02
A12U C23G U34G	0.02
A12G G22C A26G U38A A41U	0.01
A12U C31A A39G	0
A12U A14U A24C A41G C45U	0.04
A12G U28A G35U	0.02
A12G A16C G19A	0.02
A12U A16G G22U A41U	0.04
A12U G21A U32A G35C U43C	0.02
A12G C15U G17U A24G	0.01
A12U A24C G27C C37G	0
A12G G19C U28C C37A	0.02
A12U C23A U28C C31U	0.5
A12U C15A C18A G30U U38C C45A	0.04
A12G G19U U20G	0.01
A12G U38G C46U	0.04
A12G U32C U38A C42U	0.15
A12G G29U U34A	0.01
A12U C18G U20C	0.02
A12U C18U U20G G22A G30A A41C	0

Variant	self-cleavage
A12U C15G A39G	0.04
A12U G19U U28C G30U	0.31
A12G C23G A26G	0
A12C U20A U38A U43C	0.01
A12G U38C C45U	0.07
A12G G21U G29U G44U	0
A12C U32A A39C	0.02
A12G G17A A25C	0
A12U C31A G33U	0.05
A12G C18A C23U U28A	0.01
A12U C18G G27A G40U	0.09
A12C G30U U38A	0
A12G U28A A39G	0.02
A12G A16U C18A A24G A41C C45U	0.02
A12G A25U G27C C37G A39G	0.05
A12C U43A C46G	0.01
A12G G22C G44C	0.04
A12G U20C G30C G40C C46A	0.01
A12G C37G A41C	0.01
A12U C13U G19U A25C U38G	0.01
A12G G21U C37U U43A	0
A12G A26G C31U	0
A12C G29C C31G	0.01

Source: the RNAGym collection of RNA variant scans (doi:10.7554/elife.90254)
